In PubChem BioAssay AID1345082 (National Center for Advancing Translational Sciences (NCATS), 2018):
Screen size: about 94,000 compounds; about 4,000 (4.3%) were called active. Inconclusive results, whose numbers are uncertain, are shown with a selection of clear calls. Calls come from the whole dose curve; as a rule, active = well fitted inhibition curve with a large enough effect; inconclusive = small, poorly fitted or top-dose-only effect; inactive = no such curve, though single readings can be large or run the other way. A potency beside an inconclusive call is a rough fit, not a confirmed value.

assay: Cytotoxic Profiling in NIH 3T3 Cell Line of Diverse Libraries Using Quantitative High-Throughput Screening; settings: NIH 3T3 viability, CellTiter-Glo ATP luminescence, 48-72 h; series mostly up to 96.7 µM; note: nearly all actives have a fitted effect of over 55% in size
How it was run: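 Cytotoxicity was measured by CellTiter-Glo ATP luminescence after 48 or 72 h compound exposure at 37 °C. Mouse NIH 3T3 fibroblasts were seeded at 400 cells/well and dosed by 23 nL pin transfer.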
Potency is the fitted concentration of half-maximal effect; tags give direction and shape of the fitted curve.

SMILES	Potency
CCOC(=O)C1CCCN(C(=O)C2CCc3nnc(C4CCN([S+](=O)([O-])c5ccccc5Cl)CC4)n32)C1 (configuration not stated)	inactive
Cc1cc(C)c(NC(=O)Cn2ccn3nc4c(c3c2=O)CCCC4)c(C)c1	inconclusive: 70.8 µM [inhibitor, partial curve, poor fit]
COc1ccccc1-c1nc(N2CCOCC2)cc2c1CN(c1ccccc1)C2=O	inactive
Cc1ccc(-n2c(C3CCN(C(=O)COc4cccc(C)c4)CC3)n[nH]c2=O)cc1	inconclusive: 5.62 µM [inhibitor, full curve, poor fit]
Cc1ccc(-n2nc3n(c2=O)CCN([S+](C)(=O)[O-])C3)cc1	inactive
O=C1NCc2ccccc2CC12CCN(Cc1cccc(OC(F)(F)F)c1)C2 (configuration not stated)	inconclusive: 70.8 µM [inhibitor, partial curve, poor fit]
O=C(C1CCCN1C(=O)c1ccccc1)N1CCC(N2CCCC2=O)CC1 (configuration not stated)	inactive
Cc1ccc(CN2CC(Oc3ccccc3C(=O)NC3CC3)C2)cc1	inconclusive: 50.1 µM [inhibitor, partial curve, poor fit]
CCc1noc(-c2cn(C3CCN(C(=O)c4cccc(C)c4)CC3)nn2)n1	inconclusive: 50.1 µM [inhibitor, partial curve, poor fit]
Cc1cccc(C2c3cc(OCc4nc(C(=O)NC(C)C)co4)ccc3CCN2C(=O)C2CC2)c1 (configuration not stated)	active: 14.1 µM
COc1cccc(CN2Cc3cc(NC(=O)c4cccc(F)c4)ccc3OC(C)C2=O)c1 (configuration not stated)	inconclusive: 39.8 µM [inhibitor, partial curve]
COc1ccc(-c2cc(N3CCCN(C(=O)C4(c5ccc(OC)cc5)CC4)CC3)n[nH]2)cc1	inconclusive: 44.7 µM [inhibitor, partial curve, poor fit]
c1cc(CN2CC[C@H]3CNC[C@H]32)cc(OCCCCN2CCCCC2)c1	inconclusive: 89.1 µM [inhibitor, single point]
CCc1nc2c(c(-c3ccc(O)cc3)n1)CN(Cc1cccn1C)CC2	inconclusive: 79.4 µM [inhibitor, partial curve]
CN1c2cc(C(=O)NCc3cccc(Cl)c3)ccc2C(=O)N2CCCCCC21 (configuration not stated)	inconclusive: 50.1 µM [inhibitor, single point]
COc1ccccc1C1CCCN1Cc1cn(CCC(N)=O)c2ccccc12 (configuration not stated)	inactive
O=C(NCC1CC1)C1(CCO)CCN(c2ncccn2)C1 (configuration not stated)	inactive
O=C(Cn1ccn2nc3c(c2c1=O)CCCC3)NC1CCCC1	inactive
OC[C@@H]1CNC[C@H]1C1CCN(Cc2ccc(F)c(Br)c2)CC1	active: 35.5 µM
CN1C[C@@H]2CC[C@H](C1)N(Cc1cccc(OCCN3CCOCC3)c1)C2	inactive
Cc1ccc2cc(CN3C[C@@H](CO)[C@H](c4nc(C)no4)C3)c(=O)[nH]c2c1	inconclusive: 70.8 µM [inhibitor, partial curve, poor fit]

SMILES	Potency
Cc1cc(C)c(CNC(=O)c2nc(-c3cccc(C(F)(F)F)c3)cc3[nH]ccc23)c(=O)[nH]1	inconclusive: 35.5 µM [inhibitor, partial curve]
CN(C)C(=O)N1CCCCC(NC2CCN(c3ccc4c(c3)CCC4)CC2)C1 (configuration not stated)	inconclusive: 50.1 µM [inhibitor, partial curve, poor fit]
O=C1COc2ccc(Nc3ccc(Cl)cc3)nc2CN1Cc1nc2ccccc2s1	active: 39.8 µM
CCc1cccc(OCC(=O)c2ccc3c(c2)N(CCCC(=O)NCC2CC2)C(=O)CO3)c1	inconclusive: 35.5 µM [inhibitor, partial curve]
Cc1nnc(CCNC(=O)[C@H]2CNC[C@@H](C(=O)N3CCCC3)C2)s1	inactive
Cc1cccc(-c2noc(CCC(=O)N[C@H]3CC[C@H]3NC3CCCC3)n2)c1	inconclusive: 50.1 µM [inhibitor, partial curve, poor fit]
COc1ccc(C(=O)N2CCC3(CC2)NCCc2c3[nH]c3ccccc23)cn1	inactive
Cc1ccc(CN2CC[C@@H]3CN(S(C)(=O)=O)[C@@H]3C2)c(C)c1	inactive
O=C(c1ccc(-c2cncnc2)cc1)N1CCC(N[S+](=O)([O-])c2cccc(C(F)(F)F)c2)CC1	inconclusive: 44.7 µM [inhibitor, partial curve, poor fit]
COc1ccc(CNC[C@H]2O[C@H](Cc3cc(COc4ccccc4)on3)CC[C@@H]2O)cc1	inconclusive: 79.4 µM [inhibitor, partial curve, poor fit]
Cc1noc(C)c1S(=O)(=O)NC1CCN(C(=O)N2CC3CC(C2)[C@H]2CCCC(=O)N2C3)CC1 (some centres not stated)	inactive
Cc1ccc(C(=O)N2CCCC3(COc4ccccc4C(=O)N3)C2)cc1 (configuration not stated)	inconclusive: 56.2 µM [inhibitor, partial curve, poor fit]
Cc1ccc(C(=O)N2CCC3(C2)C(=O)N(C)c2ccccc23)cc1 (configuration not stated)	inconclusive: 79.4 µM [inhibitor, partial curve, poor fit]
c1ccc(-c2noc(-c3cncnc3N3CCC(N4CCCCC4)CC3)n2)cc1	inconclusive: 17.8 µM [inhibitor, full curve, poor fit]
O=C(Cc1cccc(Cl)c1)N1CCCC(C(=O)N2CCC(N3CCOC3=O)CC2)C1 (configuration not stated)	inactive
Cc1ccc(C2Cn3cnc(C(=O)N4CCC(C(=O)NCCc5ccccc5)CC4)c3CO2)cc1 (configuration not stated)	inactive
CNC(=O)c1cccc(NC(=O)c2nc(C(O)c3ccccc3F)oc2C)c1 (configuration not stated)	inconclusive: 44.7 µM [inhibitor, partial curve, poor fit]
COC(=O)C1=C(C)N=C2SC=C(CC(=O)Nc3ccc(C)c(C)c3)N2C1c1ccccc1 (configuration not stated)	inconclusive: 50.1 µM [inhibitor, partial curve, poor fit]
CC1=NS(=O)(=O)N(C)C=C1C(=O)OCc1nc(C2CC2)no1	inactive
O=C(c1csnn1)N1CCCC(CCc2c(F)cccc2F)C1 (configuration not stated)	inconclusive: 39.8 µM [inhibitor, partial curve]
COc1ccc(Cn2c(=O)c3ccnn3c3ccc(C(=O)NCc4cccnc4)cc32)cc1	inactive
